We go through 15 molecules from the supplement of paper PMC9446081.

The whole screen tested about 39,000 compounds, of which about 220 (0.56%) showed activity. This is one part of the list.
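Also: static incubation at 37 °C against the wild-type strain, values averaged over two biological replicates.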

The subject of this test is Escherichia coli K-12 BW25113. Put plainly: relative growth (OD600 normalised to plate interquartile mean) (fraction); higher = less growth inhibition, active = 0.2 or less. Particulars: 50 µM; LB; incubation time: overnight (16-24 h).
For the molecule `C[C@H]1CN([C@@H](C)CO)C(=O)Cc2cc(NC(=O)Cn3cnnn3)ccc2O[C@H]1CN(C)S(=O)(=O)c1ccc(Cl)cc1`, the relative growth was inactive: 1.03.

In the case of `CC(C)(C(=O)c1cccnc1)c1cccnc1`, the relative growth was inactive: 1.06. In the case of `C[C@H](CO)N1C[C@H](C)[C@@H](CN(C)S(C)(=O)=O)Oc2ccc(NC(=O)Cn3cnnn3)cc2C1=O` it was inactive: 0.96; in that of `Cc1ccc(S(=O)(=O)Nc2ccc3c(c2)C(=O)N([C@H](C)CO)C[C@@H](C)[C@@H](CN(C)Cc2ccccc2)OCCCC[C@H](C)O3)cc1`, inactive: 1.02; in that of `Cc1noc(C)c1S(=O)(=O)N(C)C[C@H]1Oc2ccc(NS(=O)(=O)c3ccc(F)cc3)cc2CC(=O)N([C@H](C)CO)C[C@H]1C`, inactive: 0.992.

Turning to `C[C@@H]1CN([C@H](C)CO)C(=O)c2cc(NC(=O)Nc3ccccc3)ccc2O[C@@H](C)CCCCO[C@@H]1CN(C)Cc1ccc(C(=O)O)cc1`, the relative growth is inactive: 0.984. In the case of `C[C@H](CO)N1C[C@H](C)[C@H](CN(C)S(=O)(=O)c2cn(C)cn2)Oc2ncc(-c3ccccc3)cc2C1=O` it was inactive: 0.988; in that of `CO[C@@H]1[C@@H](OC(=O)c2ccc(C)[nH]2)[C@@H](O)[C@@H](Oc2ccc3c(c2C)OC(=O)[C@H](NC(=O)c2[nH]cc(CC(=O)Nc4cc5ccc(O[C@@H]6OC(C)(C)[C@H](OC)[C@@H](OC(=O)c7ccc(C)[nH]7)[C@H]6O)c(C)c5oc4=O)c2C)C3)CC1(C)C`, active: 0.0629; in that of `Cc1noc(C)c1NC(=O)Nc1ccc2c(c1)C(=O)N([C@@H](C)CO)C[C@@H](C)[C@@H](CN(C)Cc1ccccc1)OCCCC[C@H](C)O2`, inactive: 0.999. For the molecule `O=C(C[C@H]1CC[C@H]2[C@@H](COC[C@@H](O)CN2S(=O)(=O)c2ccccc2)O1)NCCN1CCCC1`, the relative growth was inactive: 1.02.

As to `C[C@@H]1CCCCO[C@@H](CN(C)C(=O)C2CCCCC2)[C@@H](C)CN([C@@H](C)CO)C(=O)c2cc(NC(=O)c3ccncc3)ccc2O1`, the relative growth was inactive: 1.01. Next, `COc1ccc(S(=O)(=O)Nc2ccc3c(c2)C(=O)N([C@@H](C)CO)C[C@@H](C)[C@H](CN(C)S(=O)(=O)c2ccc(C)cc2)O3)cc1`: inactive: 1.01; `Cc1noc(C)c1S(=O)(=O)Nc1ccc2c(c1)CC(=O)N([C@@H](C)CO)C[C@H](C)[C@@H](CN(C)CC1CC1)O2`: inactive: 1.02.

Regarding `O=C(C[C@@H]1CC[C@H]2[C@@H](COC[C@@H](O)CN2S(=O)(=O)c2ccccc2)O1)NCCN1CCCC1`, the relative growth is inactive: 0.972. Take `O=C(c1ccccc1Cl)n1c2ccccc2c2ccccc21`: the relative growth was inactive: 1.02.
